Assay results as given in the supplement of paper PMC7826260.
The other results are listed elsewhere or left out. One pool of 16,384 single-stranded DNAs met each Rep nickase domain in vitro (1 h at 37 °C, 3 µM enzyme); the outer parts of the 90-letter strands are left off. Values are log2 of uncut reads against the no-enzyme pool; uncut sequences lie near 0, cut ones below; no hit call is given. The scaling is to total reads; uncut strands gain when others are lost, and binding without cutting may add a little.

Experiments:
Assay in all cases: uncleaved DNA left, log2 of reads against the no-enzyme library (log2 ratio); higher = less cleavage (more negative = more Rep cleavage of the k-mer); sequences stand for … in CTCGTCCG…ACCGGAGA
[1] = test system: T1, Rep nickase domain of Muscovy duck circovirus
T1 sequence (protein, residues 1-111, tag omitted): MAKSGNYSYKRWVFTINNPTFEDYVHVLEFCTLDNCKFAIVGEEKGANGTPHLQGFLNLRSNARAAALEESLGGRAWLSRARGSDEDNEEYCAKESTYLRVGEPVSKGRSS
Protocol: (§1)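 A pool of 90-nt single-stranded DNAs with seven random bases just before the constant AC of the nick site (name = the seven bases) was cut by 3 µM recombinant His6-SUMO-tagged Rep nickase domain (300 nM DNA, 50 mM HEPES pH 8.0, 50 mM NaCl, 1 mM MnCl2, 1 h, 37 °C, three replicates). Uncut DNA was amplified and sequenced.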

[2] = test system: T2, Rep nickase domain of banana bunchy top virus
T2 sequence (protein, residues 1-94, tag omitted): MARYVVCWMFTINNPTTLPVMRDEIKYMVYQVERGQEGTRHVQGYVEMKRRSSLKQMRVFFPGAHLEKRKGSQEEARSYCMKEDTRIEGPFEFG
Protocol: as §1

[3] = test system: T3, Rep nickase domain of cabbage leaf curl virus
T3 sequence (protein, residues 1-116, tag omitted): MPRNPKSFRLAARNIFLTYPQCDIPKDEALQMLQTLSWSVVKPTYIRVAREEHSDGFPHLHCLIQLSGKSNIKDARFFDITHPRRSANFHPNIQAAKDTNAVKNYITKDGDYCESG
Protocol: as §1

[4] = test system: T4, Rep nickase domain of chickpea chlorotic dwarf virus
T4 sequence (protein, residues 1-124, tag omitted): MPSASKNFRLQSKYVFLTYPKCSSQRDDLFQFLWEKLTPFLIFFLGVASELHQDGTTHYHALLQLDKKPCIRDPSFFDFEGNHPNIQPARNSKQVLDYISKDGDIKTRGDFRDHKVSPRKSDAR
Protocol: as §1

[5] = test system: T5, Rep nickase domain of faba bean necrotic yellows virus
T5 sequence (protein, residues 1-98, tag omitted): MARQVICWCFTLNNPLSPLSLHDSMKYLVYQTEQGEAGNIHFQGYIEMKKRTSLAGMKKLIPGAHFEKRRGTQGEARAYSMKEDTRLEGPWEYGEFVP
Protocol: as §1

[6] = test system: T6, Rep nickase domain of maize striate mosaic virus
T6 sequence (protein, residues 1-117, tag omitted): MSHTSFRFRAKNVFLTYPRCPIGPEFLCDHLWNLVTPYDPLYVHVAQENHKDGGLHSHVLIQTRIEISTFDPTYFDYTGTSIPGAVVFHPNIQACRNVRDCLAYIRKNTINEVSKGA
Protocol: as §1

[7] = test system: T7, Rep nickase domain of porcine circovirus 2
T7 sequence (protein, residues 2-116, tag omitted): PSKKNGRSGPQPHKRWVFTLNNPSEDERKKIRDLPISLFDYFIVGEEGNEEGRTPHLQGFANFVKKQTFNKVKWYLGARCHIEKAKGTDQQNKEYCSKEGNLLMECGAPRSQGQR
Protocol: as §1

[8] = test system: T8, Rep nickase domain of tomato golden mosaic virus
T8 sequence (protein, residues 1-124, tag omitted): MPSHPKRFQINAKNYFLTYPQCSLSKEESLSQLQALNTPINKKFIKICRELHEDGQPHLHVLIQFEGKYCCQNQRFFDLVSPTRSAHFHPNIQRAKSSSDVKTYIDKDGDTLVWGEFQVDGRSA
Protocol: as §1

[9] = test system: T9, Rep nickase domain of tomato yellow leaf curl virus
T9 sequence (protein, residues 1-136, tag omitted): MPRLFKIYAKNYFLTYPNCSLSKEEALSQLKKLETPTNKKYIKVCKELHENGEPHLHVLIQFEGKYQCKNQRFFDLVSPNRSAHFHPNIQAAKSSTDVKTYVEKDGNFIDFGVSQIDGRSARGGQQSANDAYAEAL
Protocol: as §1

[10] = test system: T10, Rep nickase domain of wheat dwarf virus
T10 sequence (protein, residues 1-137, tag omitted): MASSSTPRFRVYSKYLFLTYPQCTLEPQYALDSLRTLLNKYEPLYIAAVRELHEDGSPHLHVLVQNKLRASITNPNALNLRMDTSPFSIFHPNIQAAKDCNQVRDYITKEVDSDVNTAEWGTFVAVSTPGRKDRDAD
Protocol: as §1

Row | Sequence | uncleaved DNA left (log2) [1] | uncleaved DNA left (log2) [2] | uncleaved DNA left (log2) [3] | uncleaved DNA left (log2) [4] | uncleaved DNA left (log2) [5] | uncleaved DNA left (log2) [6] | uncleaved DNA left (log2) [7] | uncleaved DNA left (log2) [8] | uncleaved DNA left (log2) [9] | uncleaved DNA left (log2) [10]
1 | CCTGGCA | -0.021 | -0.127 | -0.319 | -0.56 | 0.0055 | -1 | -0.128 | -0.124 | -0.0263 | -0.0716
2 | GGAAACC | 0.0513 | 0.135 | 0.552 | 1.2 | 0.0896 | 1.7 | 0.143 | 0.0637 | 0.0524 | 0.141
3 | GATGTGT | -0.000937 | -0.0041 | 0.00962 | -0.151 | 0.0633 | -0.455 | -0.0106 | 0.0375 | 0.13 | 0.0701
4 | CATTTGA | -0.0914 | -0.173 | -0.326 | -0.783 | -0.0907 | -1.2 | -0.0857 | -0.0418 | -0.0434 | -0.0806
5 | AGTGCTT | -0.043 | -0.0544 | 0.0421 | -0.0675 | -0.0965 | 0.861 | -2.44 | 0.0368 | -0.0997 | -0.141
6 | GACTGCA | -0.0519 | -0.0827 | -0.303 | -0.143 | 0.0111 | -0.287 | -1.93 | 0.0549 | 0.00101 | -0.00951
7 | GCGGAGA | 0.0463 | 0.0213 | 0.622 | 1.36 | -0.0713 | 1.42 | 0.172 | 0.124 | 0.0753 | 0.0653
8 | CCCGGAA | 0.0222 | 0.024 | 0.106 | 0.557 | 0.145 | 0.524 | 0.166 | 0.00705 | -0.212 | 0.115
9 | GAGTCTG | 0.0125 | 0.128 | 0.0843 | 0.758 | 0.00439 | 1.55 | -0.117 | 0.0922 | -0.0415 | 0.0987
10 | TTACCTG | -0.179 | -0.203 | -0.211 | -1.56 | -0.164 | 0.413 | -0.626 | -0.228 | -0.176 | -0.198
11 | AAGAGAG | 0.0427 | -0.00201 | -0.241 | 0.159 | 0.0631 | -0.667 | 0.206 | -0.000505 | 0.0393 | -0.017
12 | GGGTCCA | -0.0299 | 0.0796 | 0.739 | 1.67 | -0.131 | 2.07 | 0.0712 | -0.0278 | -0.00639 | 0.118
13 | GAACCTA | -0.167 | -0.0734 | 0.0266 | -0.918 | -0.158 | 0.798 | -0.444 | -0.129 | -0.0495 | -0.00364
14 | TTCTCTG | 0.045 | -0.119 | -0.0317 | -0.294 | -0.108 | -0.203 | -0.059 | -0.061 | -0.0558 | -0.00707
15 | CAGCGAC | 0.0786 | 0.115 | -0.0515 | 0.57 | 0.155 | 0.632 | 0.146 | 0.031 | 0.0179 | 0.039
16 | AAAGTCT | -0.00408 | -0.0345 | -1.31 | -2.75 | -0.024 | -0.351 | -0.365 | -0.0821 | -0.126 | -0.285
17 | AGGGTAC | 0.0717 | -0.0163 | 0.128 | 0.796 | -0.0116 | 0.191 | 0.176 | -0.0456 | -0.0102 | 0.0269
18 | CATGACG | 0.00774 | -0.159 | -0.821 | -0.257 | -0.00549 | -1.19 | 0.0542 | -0.138 | -0.0441 | -0.142
19 | TATGCCC | -0.0298 | -0.0315 | -0.18 | -0.535 | 0.00977 | -0.968 | 0.0263 | -0.0251 | 0.104 | -0.118
20 | TATCGGT | 0.0584 | 0.0384 | 0.16 | -0.0352 | 0.02 | 1.14 | -0.104 | 0.0594 | -0.014 | 0.0931
21 | ACGGGAA | -0.0361 | -0.00684 | 0.0924 | 0.593 | -0.0136 | 0.338 | 0.174 | -0.165 | -0.0276 | -0.0447
22 | CGTAGGC | 0.136 | 0.0998 | 0.199 | 0.267 | 0.0909 | -0.345 | 0.228 | -0.0531 | 0.134 | -0.00386
23 | CTTTGAT | -0.652 | -0.172 | -0.141 | -0.309 | -0.0771 | -0.463 | -2.03 | -0.0614 | -0.123 | -0.0519
24 | TACGCTA | -0.0768 | -0.118 | -0.385 | -2.56 | -0.0393 | -0.687 | -0.216 | -0.0558 | -0.0532 | -0.133
25 | AGTGTTG | 0.203 | 0.146 | 0.0984 | 0.568 | -0.00546 | 1.13 | 0.172 | 0.191 | 0.0845 | 0.126
26 | CTAAGCC | 0.0726 | -0.00468 | -2.73 | -2.47 | 0.138 | -1.67 | 0.0851 | -0.499 | 0.016 | -1.01
27 | AAAACGA | 0.0843 | -0.0375 | -0.234 | -0.738 | -0.0199 | -1.21 | 0.0692 | -0.0439 | 0.0377 | -0.144
28 | AATGCGT | -0.12 | -0.0714 | -0.912 | 0.121 | 0.0963 | -0.854 | 0.0298 | -0.126 | -0.0202 | -0.121
29 | CAGCGCA | 0.00122 | -0.0606 | -0.133 | -0.101 | -0.156 | -0.135 | -0.0735 | -0.0165 | -0.0416 | -0.0287
30 | TTCATCC | 0.0275 | -0.0275 | 0.174 | -0.0644 | -0.0867 | -0.156 | -0.0712 | -0.159 | 0.0422 | -0.00655
